The source gives no read counts; variants with many changes may rest on few reads.
B1: OR4K15 (parent)
chain: GUUAACGGUCAUAGGCCAUGGAAACUAGGAGCACCAUUUCGCUGCCAGUGAAGAAAUGAACAAAGAAAAUCUGGGCCAGGCAGGCAUCAAAAGAAAUAGUCUUGCGCUCAACCAGAAAGUCUGUAAUCAUUUUAAGGGUA

Variants of: B1
Test: self-cleavage, relative activity (ratio to wild type); higher = more cleavage; in vitro, sequencing; the parent is a self-cleaving ribozyme

Variant | self-cleavage
C17U U37C A135G U139C | 1.6
U2C U12C G73A A92G A111U | 0.04
U2C A92U A95G A117G | 0.9
A24C U49A A116G | 0.39
A30G A33G A82G A94G U130C | 0.21
A5G A55G U120A | 1.32
A33U A60G G84A | 2.13
A30G A117G A118U | 0.8
A11G U37C G75A A82G C85U A94U U130C U131C | 0.1
A55G A67G U124C | 1.32
U26C U49C A94G U132A | 1.55
A18G U70C A82G A92G | 0.36
A22G U72C U87C A110U A118G C128U A140G | 0.03
A52G A59U U124A | 1.03
A5U A52G A91U | 1.6
A22G A27C U37C | 1.16
U39A A69U A90G U100C A118G | 2.8
A52G A92G A116G | 1.57
A24G G28U C76G A90U | 0.13
A18U U37C A59G A68U | 2.11
U39A A47G A94G A126G | 0.87

Variant | self-cleavage
U2C A51G A64G U70A | 0.85
A52G A54G A126G | 1.99
A51C A67G A68G | 1.38
G20U U49A A86U A118U | 0.51
A23U A60G A118G | 0.79
A5G A59G U72G A96U A118G | 0.24
A51G A54G U132C | 1.55
A47G G75U A126G | 0.06
U19C A52G A110C A111G U122C A125G | 0
U38C A90U A135G | 1.7
A24G U26C A51G | 0.71
G75C A89C A94G A129C | 0.1
A69G U87C A94G U139C | 1.52
A30G A95G U103C C105U A118G | 0.07
A56G A86U U124C | 0.76
A11G A18G A66U U124A U132A | 0.26
A23G A30G A111G | 0.09
G53A A68G A92G | 1.22
U39C C101U U132C | 0.46
A47G U102C A129G | 1.59
U2C G53U U72A U103A A117G | 0.06

Variant | self-cleavage
A63G A89G A91G U132A | 1.25
A27G A52G U132C | 0.83
A11U A62G U132C | 0.63
U70C G80U U122A | 0.09
U19C U39C A117G | 2.42
A66U A96U U100G U124C | 1.14
A69G U103C A114G | 0.16
C88A A116U U139A | 0.35
A91G A98G A114G U120C U131C | 0.01
U57C A59C A114G U132C A134G | 0
A62U U108C U120A | 0.01
U43C A67U A111G | 0.02
A55G A60G A64G | 1.02
U39C U87C A116G | 0.42
U43C U87A U124A | 0.62
A22G C45A A47G | 1.49
U70C G74A A78U | 0.04
A23G U43C A54U | 0.62
U9C A33U A60G A63G U72C A117G U120A | 0.21
A11G C61U U132C | 0.88
A69G A86U A89G | 1.19

Variant | self-cleavage
A67U U102A A111U U132C | 0.06
U72A A117G A134G | 0.15
U39C A60U A89C U102C U139C | 1.87
U12C A24G A63G A95G | 1.76
A66C A67C U120A U122C U132C | 0.62
A22G A56G A92G A117U | 0.9
G7A A64G A92G A116G | 1.47
U43C C46U A60G A91G U124C | 0.41
A5G A27G A134G A135U | 1.34
U87C U122C U139C | 0.66
U12C U39G U100C U131C | 1.21
A23G U26C A59G | 1.23
U39A A90G A110G | 0.18
A67G G106A U108C A118G | 0.02
U39C U72C A78U | 0.14
A60U A116G U139C A140U | 0.9
U49C U57C A60G C105U | 0.03
A5U C17U A86G U87A A96G | 0.98
U2C A56G A92G | 0.47
U38G U103C A111G | 0.02
A5U U72C A111G G138C U139C | 0.01
